Source: the supplement of paper PMC3334620
Whole data set: some 33,000 sequences, median “E-score (-0.5 to 0.5)” near -0.035, cut for the highest 2% near 0.34. The list shows a part of the results.

Target: T1, Mot3 (UniProt P54785)
T1 sequence: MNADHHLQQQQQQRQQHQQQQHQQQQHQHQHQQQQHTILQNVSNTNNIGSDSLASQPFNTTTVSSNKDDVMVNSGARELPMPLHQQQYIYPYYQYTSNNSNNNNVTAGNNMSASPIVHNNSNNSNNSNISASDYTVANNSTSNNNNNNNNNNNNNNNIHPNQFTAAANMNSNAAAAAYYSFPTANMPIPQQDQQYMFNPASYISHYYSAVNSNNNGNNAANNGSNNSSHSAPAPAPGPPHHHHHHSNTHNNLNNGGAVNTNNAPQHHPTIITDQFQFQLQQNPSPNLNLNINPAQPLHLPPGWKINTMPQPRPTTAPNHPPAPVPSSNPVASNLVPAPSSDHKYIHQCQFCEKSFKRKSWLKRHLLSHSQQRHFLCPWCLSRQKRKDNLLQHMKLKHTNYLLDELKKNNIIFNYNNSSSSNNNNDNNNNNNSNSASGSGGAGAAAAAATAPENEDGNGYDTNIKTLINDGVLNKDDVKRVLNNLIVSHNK
Assay: PBM E-score (8-mer binding enrichment) (E-score (-0.5 to 0.5)); higher = stronger / more preferred TF binding; most listed sequences are background and not binding sites
Conditions: protein concentration: 200 nM; construct: GST-full length
How it was run: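 GST-tagged yeast TFs (full-length or DNA-binding domain) were made by PURExpress in vitro transcription/translation and applied at about 100-200 nM to universal all-10-mer Agilent arrays. The arrays were made double-stranded by primer extension, on fresh or once-stripped slides. Bound protein was detected with fluorescent anti-GST, and scans were normalised with masliner. Each ungapped eight-base word, pooled with its reverse complement, received an E-score (modified Wilcoxon-Mann-Whitney statistic) from the Universal PBM Analysis Suite.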

Row | Sequence | PBM E-score
1 | AGCCACAA | -0.154
2 | CAAAATCC | 0.0251
3 | ATAACCAA | 0.0625
4 | ATAATCCC | -0.119
5 | AAGTCACG | 0.205
6 | CGTTTAAA | 0.174
7 | CCGATGGA | -0.232
8 | GAAGACAC | 0.0023
9 | GACCTCGC | -0.181
10 | AATGCACG | 0.0706
11 | CAGTTTAC | 0.215
12 | AGTTTAGC | -0.0648
13 | CACCAATG | -0.102
14 | AGAAAAGA | 0.0735
15 | GAACTCGA | 0.0884
16 | TCTACGCA | 0.275
17 | AGAGTCGG | -0.0456
18 | GGAATTCC | -0.315
19 | AGAGTTAA | 0.0318
20 | CGGTCGGC | -0.32
21 | AACGAGGA | 0.00748
22 | GAACCCGC | -0.121
23 | GCAACCGA | -0.266
24 | GGATGTGA | -0.0241
25 | AATAGTGG | 0.164

Row | Sequence | PBM E-score
26 | TCTAAGCA | 0.0236
27 | AAAAATCT | 0.0523
28 | CGAAGTTC | -0.0913
29 | AACCCGTG | -0.211
30 | AACTTGCC | 0.204
31 | CCTAGTAA | 0.117
32 | AATGTACA | 0.292
33 | CATCATCC | -0.119
34 | ACGCAGTC | -0.0289
35 | GGCTACGA | -0.125
36 | AGGACCCA | -0.323
37 | CCATGCGC | -0.143
38 | AATTGGAC | -0.145
39 | CTCGACCA | -0.258
40 | CAGAATCA | 0.0337
41 | GGTGCACC | -0.00493
42 | AACTATAG | -0.0332
43 | ACCTGACT | 0.002
44 | AAACGGAT | 0.0493
45 | GCACTTAA | 0.133
46 | GCCGAATA | -0.0956
47 | CCGAGGCA | 0.308
48 | CACGCCTC | 0.0202
49 | CCGTCTAC | 0.0226
50 | CTTTCAAA | 0.048

Row | Sequence | PBM E-score
51 | ATTGCTCG | -0.228
52 | ATTGGTGG | -0.139
53 | ACGTACAT | 0.286
54 | CCGTGAAG | -0.126
55 | GTCATAGA | 0.11
56 | GTTCTTAA | -0.031
57 | CTTTCTGC | -0.0935
58 | GCAGTCCC | -0.164
59 | GGGGTGAA | -0.261
60 | CTTAATCC | -0.00888
61 | CATCGGTA | -0.221
62 | AGTAGGAA | 0.403
63 | CGGGGGAA | -0.149
64 | AGGTCCCA | -0.294
65 | CCAGGTGC | -0.0667
66 | AGTAGGTC | -0.0219
67 | ACCTAGAC | -0.153
68 | CAGGTCCG | -0.302
69 | AGCTTAGG | -0.0963
70 | CCGGTCCA | -0.328
71 | CTCCAAAC | 0.0667
72 | CTAGTTCC | 0.168
73 | GTGAACCA | 0.0599
74 | TACTCCTA | 0.122
75 | GGTGTGCA | -0.119

Row | Sequence | PBM E-score
76 | CACGTTTA | 0.3
77 | CTCACCTA | -0.0658
78 | CTTTATGA | -0.0242
79 | GAGAGTCC | -0.229
80 | ACCTCGAT | -0.0183
81 | AAGACAGG | 0.103
82 | AGTGTCCA | 0.0882
83 | CGACGCCA | -0.163
84 | AAAAGCGG | -0.0916
85 | AATTGTAG | 0.17
86 | CCGCGAAG | -0.141
87 | TCCGCGAA | 0.113
88 | GACAGTTA | -0.0316
89 | AGATCACG | -0.051
90 | AGAACTGC | -0.146
91 | AGCACAGG | 0.0314
92 | CGACTAAA | -0.0183
93 | TCACTAAA | 0.157
94 | ATCACGAA | -0.0774
95 | AAATAAAG | -0.056
96 | GTACGGGA | -0.0576
97 | AATCTCAC | -0.123
98 | ACATGTCC | 0.259
99 | AAAAGCTT | 0.115
100 | CAGTACAA | 0.0155

Row | Sequence | PBM E-score
101 | GTATACAA | 0.181
102 | GCGCATCC | -0.0152
103 | AAGAGAGA | 0.0257
104 | GCCGGTAC | -0.0905
105 | ATTTCAAG | 0.0233
106 | CCATTGGG | -0.275
107 | GGCAGTAC | 0.0561
108 | CATCCTCA | -0.102
109 | AATTTAAG | 0.0519
110 | AATTCCAG | -0.00489
111 | CAGTGATA | -0.0792
112 | CGTTGCGC | -0.0266
113 | GACAAAAA | 0.0881
114 | GAATACAA | 0.214
115 | AGCGAAAT | 0.0221
116 | GCGAAAGA | -0.039
117 | ACGCCCTC | -0.0732
118 | ATCGGGGG | -0.388
119 | CGAAGGTC | -0.313
120 | ATTGGCTC | 0.00098
121 | GTGTCAAA | 0.262
122 | AAAGGCCG | -0.309
123 | ACGAGACA | -0.107
124 | AATGGGTG | 0.0474
125 | ATCTATGG | -0.335

Row | Sequence | PBM E-score
126 | ATACTTGG | -0.146
127 | GGGGAGTA | -0.162
128 | CATTCCCG | -0.0674
129 | AAAACCAA | 0.161
130 | ATTCACTC | 0.0527
131 | ACTGTTCT | -0.0685
132 | ATCAGTCG | -0.0808
133 | CATTAACC | 0.11
134 | CCTACGTC | 0.0371
135 | ATGAATTA | 0.0978
136 | GCCTCAGC | -0.105
137 | AATTATGC | 0.191
138 | GAGCAGTA | -0.192
139 | CCGCCCGG | -0.178
140 | CATCTATA | -0.0629
141 | GCATTCGC | -0.00393
142 | AATGATCA | -0.084
143 | AACGGTAC | -0.145
144 | AGCCAGCA | -0.257
145 | TGAGTCAA | 0.046
146 | CTACTTTA | 0.119
147 | CTCGTGTC | 0.184
148 | AAACGCGG | 0.0999
149 | ATGGCTAA | -0.198
150 | ATAGCTAA | -0.0278

Row | Sequence | PBM E-score
151 | CAGTTCTA | -0.0219
152 | CTCTACAG | 0.0634
153 | GTTCACGA | -0.101
154 | AAGATTCT | -0.154
155 | GGATGTAC | 0.197
156 | CTCTGAAA | -0.0147
157 | ATTAAGCC | -0.194
158 | AGCGACCA | -0.174
159 | CGGACGTA | -0.112
160 | AATTAGGT | 0.0694
161 | CCGCCGAC | -0.0974
162 | GCAAATGC | 0.0841
163 | ATCGAATC | 0.00195
164 | ACTAGGAA | 0.19
165 | CGTTAGTC | -0.132
166 | ATCTCCCG | -0.24
167 | GTCTCAAA | -0.22
168 | GATTCACA | 0.107
169 | AAAACCTG | -0.0219
170 | ATAAGTGC | -0.0532
171 | GAATCTTA | -0.0559
172 | CAAAACCA | 0.0975
173 | ACAGCTTC | -0.0793
174 | GTCTTACA | 0.263
175 | GTAGGGAA | 0.0974

Row | Sequence | PBM E-score
176 | GTGGCTGA | -0.235
177 | CAAACCTC | -0.25
178 | CAGTTTAG | -0.0942
179 | CGGGATGA | -0.225
180 | CTCAAAAC | 0.041
181 | CGTCCTGA | -0.334
182 | CCCTCGTC | -0.304
183 | GACTCAAA | -0.182
184 | CTCTAAGA | -0.117
185 | CTATTATC | 0.132
186 | CCACTTAG | 0.0229
187 | CCTGCCCC | -0.241
188 | AACGCTCA | 0.0456
189 | ATTCCGGC | 0.0238
190 | CAAACACC | 0.0695
191 | CAGCGTCC | -0.0903
192 | GATGAGTA | 0.0307
193 | CAATCTGC | -0.147
194 | CTGATGGC | -0.218
195 | GTATTCTA | 0.112
196 | ATTGTTAG | 0.211
197 | AGGAAACA | 0.391
198 | AATTCGCG | 0.228
199 | AGGATAAA | 0.104
200 | ACCAACGC | -0.0129

Row | Sequence | PBM E-score
201 | CCTTCTGC | -0.193
202 | TAGCTCGA | -0.166
203 | AATTTGTA | 0.186
204 | GACGACCA | -0.161
205 | ACAACATA | 0.307
206 | AATCAGCA | 0.136
207 | AGACTTGG | -0.245
208 | GTAGTGCA | 0.021
209 | ACACGACC | 0.29
210 | CCATCACG | -0.0536
211 | CAAATAGG | 0.248
212 | GGCATCAA | -0.00866
213 | GAACTGTA | 0.158
214 | CTGTCAAC | 0.0592
215 | CTGCTCAC | -0.129
216 | ACCTGCGA | 0.0659
217 | TCAAAAGA | -0.0592
218 | GCAGAACC | 0.0393
219 | CAAATTCG | -0.192
